{"source": "PubChem BioAssay AID1671194", "about": "(National Center for Advancing Translational Sciences (NCATS), 2021)", "note": "In all, about 140,000 compounds went through this assay and about 240 (0.17%) were called active. The shares of active, inactive and inconclusive entries below differ from those in the screen. Calls come from the whole dose curve; as a rule, active = well fitted inhibition curve with a large enough effect; inconclusive = small, poorly fitted or top-dose-only effect; inactive = no such curve, though single readings can be large or run the other way. Potencies of inconclusive entries are doubtful fits and often do not repeat. Potency is the fitted concentration of half-maximal effect; tags give direction and shape of the fitted curve."}
{"test": "Primary qHTS assay for inhibitors of alpha-synuclein gene (SNCA) expression; note: nearly all actives have a fitted effect of over 45% in size;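 for activity change, negative = inhibition: plate controls were DMSO cells for no effect and cell-free wells for full effect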", "conditions": "HEK-293 SNCA-luciferase knock-in, luminescence, 24 h; activity change, negative = inhibition: at 57.2 µM (top of the series) unless noted"}
{"smiles": "CN(C)c1ccc(-c2nc(NC3CCNCC3)c3ccccc3n2)cc1", "Potency": "inconclusive: 39.8 µM [inhibitor, single point]"}
{"smiles": "CC1(C(=O)Nc2ccc(F)cc2)CN(Cc2ccccc2)Cc2ccc(N3CCOCC3)nc21", "note": "(centres undefined)", "Potency": "inconclusive: 12.6 µM [inhibitor, partial curve]"}
{"smiles": "CCc1ccc(NC(=O)c2ccc3c(c2)N(CC)C2CCCCCN2C3=O)cc1", "note": "(centres undefined)", "Potency": "inconclusive: 39.8 µM [inhibitor, single point]"}
{"smiles": "Cc1cc(C)cc(-n2c(C)nc3cc(C(=O)NCc4ccccc4Cl)ccc32)c1", "Potency": "inconclusive: 39.8 µM [inhibitor, single point]"}
{"smiles": "COc1cccc(C(=O)Nc2ccc(-n3nncc3-c3ccccc3)cc2)c1", "Potency": "inconclusive: 5.01 µM [inhibitor, full curve]"}
{"smiles": "Cc1ccc(NC(=O)CN2C(=O)CCc3cc(S(=O)(=O)N4CCCCC4)ccc32)cc1C", "Potency": "inconclusive: 0.398 µM [inhibitor, single point]"}
{"smiles": "CNC(=O)[C@H]1C[C@H](Oc2ccccc2)CN1C(=O)Nc1ccc2c(c1)OCCO2", "Potency": "inconclusive: 39.8 µM [inhibitor, single point]"}
{"smiles": "Cc1cccc(N(C)C(=O)Cn2c(N3CCc4ccccc4C3)nc(C)cc2=O)c1", "Potency": "inconclusive: 28.2 µM [inhibitor, partial curve, poor fit]"}
{"smiles": "O=[S+]([O-])(c1ccccc1)N1CCN(c2nccc(Nc3ccccc3Cl)n2)CC1", "Potency": "inconclusive: 8.91 µM [inhibitor, partial curve, poor fit]"}
{"smiles": "Cc1ccc(CN2C(=O)NC3(CCCN(C(=O)c4ccccc4F)C3)C2=O)cc1", "note": "(centres undefined)", "activity change, negative = inhibition": "inactive: 6.29%"}
{"smiles": "CC1=C(CO)C(=O)O[C@@H]([C@@H](C)[C@H]2CC[C@H]3[C@@H]4C[C@H]5O[C@]56[C@@H](O)C=CC(=O)[C@]6(C)[C@@H]4CC[C@]23C)C1", "Potency": "active: 3.04 µM"}
{"smiles": "O=C(c1ccccc1Cl)N1CCCC(C(=O)N2CCC(N3Cc4cccn4C3=O)CC2)C1", "note": "(centres undefined)", "activity change, negative = inhibition": "inactive: 27.8%"}
{"smiles": "CC[C@@H](C)[C@@H](C(=O)Nc1ccc(C)cc1)N1Cc2ccccc2C1=O", "Potency": "inconclusive: 1.41 µM [inhibitor, full curve]"}
{"smiles": "Cn1cnc2cc(-c3ccc(F)cc3)cc(C(=O)NCC3CCOCC3)c21", "activity change, negative = inhibition": "inactive: 7.54% [at 87.6 µM]"}
{"smiles": "O=C(CSc1nc2c([nH]c3ccccc32)c(=O)n1-c1ccccc1)Nc1ccc(Cl)c(Cl)c1", "Potency": "inconclusive: 17.8 µM [inhibitor, partial curve, poor fit]"}
{"smiles": "COc1cc(NC(=O)N2CCC3(CC2)Nc2ccccc2-n2cccc23)cc(OC)c1OC", "Potency": "inconclusive: 20 µM [inhibitor, single point]"}
{"smiles": "O=C(CSc1nnc(-c2ccccc2F)o1)Nc1ccccc1Cl", "Potency": "inconclusive: 15.8 µM [inhibitor, single point]"}
{"smiles": "Cc1cc2nc3n(c(=O)c2n1CC(=O)NC1CCc2ccccc21)CCCCC3", "note": "(centres undefined)", "Potency": "inconclusive: 3.16 µM [inhibitor, single point]"}
{"smiles": "COc1cc(C)c2c(c1C)C[C@H]([C@H](C)C(=O)O)CC2", "activity change, negative = inhibition": "inactive: -13.3% [at 87.6 µM]"}
{"smiles": "c1cncc(-c2cc3c(cn2)CN(Cc2ccncc2)CCN3)c1", "activity change, negative = inhibition": "inactive: 9.82% [at 87.6 µM]"}
{"smiles": "O=C(c1ccc(F)cc1)n1nc(-c2cccnc2)nc1NCc1ccc(F)cc1", "Potency": "inconclusive: 7.08 µM [inhibitor, single point]"}
{"smiles": "Cc1cc(-c2cc3c(cn2)CN(Cc2ccccc2F)CCN3)ccn1", "activity change, negative = inhibition": "inactive: 79% [at 87.6 µM]"}
{"smiles": "Cc1ccc(C(=O)Nc2nc(-c3nnn(-c4cccc(C(F)(F)F)c4)c3C)ns2)cc1", "Potency": "inconclusive: 28.2 µM [inhibitor, partial curve, poor fit]"}
{"smiles": "O=C(NC1CC(c2nnc(CO)n2C2CC2)C1)c1csc(-c2ccccc2)n1", "note": "(centres undefined)", "Potency": "inconclusive: 8.91 µM [inhibitor, full curve, poor fit]"}
{"smiles": "O=C1NCCCCCCN(C(=O)c2cccnc2)[C@H]2C[C@H](C(=O)N3CCc4ccccc4C3)C[C@@H]12", "activity change, negative = inhibition": "inactive: 7.3%"}
{"smiles": "COc1ccc(-c2nnc(C[C@@H]3C[C@@H](C(C)C)[C@H](CNC(=O)c4ccc(F)cc4)C=C3C)o2)cc1", "Potency": "inconclusive: 25.1 µM [inhibitor, single point]"}
{"smiles": "CCCCOc1cccc(NC(=O)c2cccc(C(=O)Nc3cccc(OCCCC)c3)c2)c1", "Potency": "inconclusive: 7.08 µM [inhibitor, single point]"}
{"smiles": "CCOC(=O)C1=C(C)N=C2SC=C(CC(=O)NC3CC3)N2C1c1cccc([N+](=O)[O-])c1", "note": "(centres undefined)", "Potency": "inconclusive: 5.01 µM [inhibitor, single point]"}
{"smiles": "COc1cccc(C(=O)NCc2nnc3c(-c4nc(C(C)C)no4)cccn23)c1", "Potency": "inconclusive: 17.8 µM [inhibitor, single point]"}
{"smiles": "COC[C@H]1NC(=O)CC[C@H]1C(=O)N1CCN(c2ccccc2)CC1", "activity change, negative = inhibition": "inactive: 15.1%"}
{"smiles": "CC(=O)N1CCC([C@@H]2CN(Cc3cc(F)c(F)c(F)c3)C[C@H]2CO)CC1", "activity change, negative = inhibition": "inactive: 29.6%"}
{"smiles": "O=C(Nc1cccc2ccccc12)O[C@@H]1CO[C@H]2[C@@H]1OC[C@@H]2Nc1nccc(-c2ccccc2)n1", "Potency": "inconclusive: 39.8 µM [inhibitor, single point]"}
{"smiles": "COc1ccccc1OCC(=O)c1ccc2c(c1)N(C(C)C(=O)NCCc1ccccc1)C(=O)CO2", "note": "(centres undefined)", "activity change, negative = inhibition": "inactive: 8.26%"}
{"smiles": "Cc1cc(=O)[nH]c(NCCNC(=O)[C@H]2CCC[C@@H](O)C2)n1", "Potency": "inconclusive: 12.6 µM [inhibitor, partial curve, poor fit]"}
{"smiles": "COc1ccccc1NC(=O)CN1C(=O)CSc2ccc(S(=O)(=O)N3CCCC3)cc21", "activity change, negative = inhibition": "inactive: -2.6%"}
{"smiles": "Cc1ncc2n1C(=O)N(C1CCN(Cc3ccccc3)CC1)C2", "Potency": "inactive"}
{"smiles": "COc1cc(OC)cc(-c2nc3nc(C)c(CCC(=O)NCCC(C)C)c(C)n3n2)c1", "Potency": "inconclusive: 22.4 µM [inhibitor, single point]"}
{"smiles": "O=C(N[C@H]1CO[C@H]2[C@@H]1OC[C@@H]2Nc1nccc(-c2ccc(-c3ccccc3)cc2)n1)c1ccccc1", "activity change, negative = inhibition": "inactive: -19%"}
{"smiles": "COc1cc([C@H]2Oc3cc([C@H]4Oc5cc(O)cc(O)c5C(=O)[C@@H]4O)ccc3O[C@@H]2CO)ccc1O", "activity change, negative = inhibition": "inactive: 21.3% [at 25.6 µM]"}
{"smiles": "O=C1COc2ccc(-c3ccoc3)nc2CN1Cc1ccccc1", "Potency": "inconclusive: 50.1 µM [inhibitor, single point]"}
{"smiles": "CC(C)C(=O)Nc1ncc(-c2cc(C(F)F)nn2-c2c(Cl)cccc2Cl)s1", "activity change, negative = inhibition": "inactive: -10.8%"}
{"smiles": "COc1ncc(CN2CC[C@@H]3OCC(=O)N(Cc4cccc(C(N)=O)c4)[C@H]3CC2)cn1", "Potency": "inconclusive: 6.31 µM [inhibitor, single point]"}
{"smiles": "O=C(NCCc1ccccc1F)c1nc2sccn2c1-c1ccc(F)cc1", "activity change, negative = inhibition": "inactive: 8.44%"}
{"smiles": "COc1ccc(Cl)cc1NC(=O)Cn1c(N(C)Cc2ccccc2)nc(C)cc1=O", "Potency": "inconclusive: 5.62 µM [inhibitor, full curve, poor fit]"}
{"smiles": "Cc1ccc(C(=O)N2CCC(CCC(=O)NCCc3c[nH]c4ccccc34)CC2)cc1", "activity change, negative = inhibition": "inactive: 161%"}
{"smiles": "COc1cc(CN2C[C@@H]3C(=O)N(CCc4ccccc4)C(=O)[C@@H]3C2)cc(OC)c1", "Potency": "inconclusive: 14.1 µM [inhibitor, partial curve]"}
{"smiles": "COc1ccc(CN2CCc3nc(C(=O)NCCOc4ccccc4)oc3CC2)cn1", "Potency": "inconclusive: 6.31 µM [inhibitor, single point]"}
{"smiles": "O=C(COc1ccc(F)cc1)N1CCN(c2cc(C(F)(F)F)ncn2)CC1", "Potency": "inconclusive: 10 µM [inhibitor, partial curve]"}
{"smiles": "COc1ccc(NC(=O)CC2C(=O)N(c3ccc(F)cc3)C(=O)N2CCc2sccc2C)cc1", "note": "(centres undefined)", "Potency": "inconclusive: 39.8 µM [inhibitor, single point]"}
{"smiles": "Cc1ccc2scc(N3CCCCC3)c(=O)c2c1", "Potency": "inconclusive: 7.08 µM [inhibitor, single point]"}
{"smiles": "Nc1ccc2nc(-c3ccc(O)cc3)sc2c1", "Potency": "active: 1.26 µM"}
{"smiles": "O=C(Cn1c(=O)oc2cc(S(=O)(=O)NCc3ccccc3)ccc21)NCc1ccccc1Cl", "Potency": "inconclusive: 1 µM [inhibitor, full curve]"}
{"smiles": "O=C(NCc1cccs1)c1nc2sccn2c1-c1cccnc1", "activity change, negative = inhibition": "inactive: 34.2% [at 87.6 µM]"}
{"smiles": "O=C(C1CC1)N1CCC(n2cc(-c3nc(-c4ccccc4)no3)nn2)CC1", "activity change, negative = inhibition": "inactive: 41.7%"}
{"smiles": "Cc1ccc(C2NC(=O)N(CC(=O)Nc3c(C)cccc3Cl)C3=C2C(=O)OC3)cc1", "note": "(centres undefined)", "activity change, negative = inhibition": "inactive: 16%"}
{"smiles": "COc1ccc(NC(=O)C(C)n2nc(-c3cc(C)ccc3C)c3c(c2=O)CCCC3)cc1", "note": "(centres undefined)", "Potency": "inconclusive: 39.8 µM [inhibitor, partial curve, poor fit]"}
{"smiles": "CCOc1ccc(NC(=O)CSc2nnc(-c3ccncc3)n2-c2ccccc2)cc1", "activity change, negative = inhibition": "inactive: -10.4%"}
{"smiles": "CN(C)c1ccc(C(=O)N2CCCN(c3cc(-c4ccc(Cl)cc4)[nH]n3)CC2)cc1", "Potency": "inconclusive: 39.8 µM [inhibitor, single point]"}
{"smiles": "COc1ccc(C(=O)N2CCC3(CCCN(C(c4ccccc4)c4ccccc4)C3)CC2)cc1", "Potency": "inconclusive: 2.82 µM [inhibitor, partial curve, poor fit]"}
{"smiles": "Cn1cc(CN[C@H]2C[C@H]3C(=O)NC[C@@H](CCC(=O)N4CCc5ccccc54)N3C2)c2ccccc21", "Potency": "inconclusive: 7.08 µM [inhibitor, single point]"}
{"smiles": "Cc1ccc(C)c(-n2cc(-c3ccccc3)nc2SCC(=O)Nc2ccccc2)c1", "Potency": "inconclusive: 28.2 µM [inhibitor, partial curve, poor fit]"}
{"smiles": "O=C(Cn1nc2c(cc1=O)CCCC2)Nc1ccc(F)c(F)c1F", "activity change, negative = inhibition": "inactive: 12.1%"}
{"smiles": "COc1ccc(CCC(=O)N2CCC([C@@H]3CNC[C@H]3CO)CC2)cc1", "Potency": "inconclusive: 39.8 µM [inhibitor, single point]"}
{"smiles": "CCCCN(CC)CCNC(=O)c1cc2c(-c3ccc(Cl)cc3)nn(C)c2s1", "Potency": "inconclusive: 35.5 µM [inhibitor, single point]"}
